# Some of the results follow.
# B1: GNL (Galanthus nivalis) (protein)
# chain: MGHHHHHHHHYGTLENGHWLMVGMSIFSKDRTVELRMQDDGKLAIYYNDHCAWQSTAQQVNNAKGAVMQGDGNFCIYDKNGKATWHTNTAAPSGDSHTFVSVQDDGNLVLYKNNGATPIWSSKSNK
# Tests used:
# Test in all cases: glycan array binding signal (z-score within array); higher = stronger binding
# Conditions in all cases: glycan notation: IUPAC condensed, linker removed
# Fuc(a1-2)Gal = target: Fuc(a1-2)Gal
# Outline: (§1)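 Columns mapping to the same glycan were averaged after glycan names were converted to IUPAC-condensed notation. The data come from 3228 arrays in the Consortium for Functional Glycomics database, limited to those with an available protein sequence. Binding is reported as a within-array Z-score averaged across arrays of one protein sequence and across linkers.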
# Fuc(a1-2)Gal(b1-3)GalNAc = target: Fuc(a1-2)Gal(b1-3)GalNAc
# Outline: as §1
# [1] = target: Fuc(a1-2)Gal(b1-3)GalNAc(a1-3)[Fuc(a1-2)]Gal(b1-4)Glc
# Outline: as §1
# [2] = target: Fuc(a1-2)Gal(b1-3)GalNAc(a1-3)[Fuc(a1-2)]Gal(b1-4)GlcNAc
# Outline: as §1
# [3] = target: Fuc(a1-2)Gal(b1-3)GalNAc(b1-3)Gal
# Outline: as §1
# [4] = target: Fuc(a1-2)Gal(b1-3)GalNAc(b1-3)Gal(a1-4)Gal(b1-4)Glc
# Outline: as §1
# [5] = target: Fuc(a1-2)Gal(b1-3)GalNAc(b1-4)[Neu5Ac(a2-3)]Gal(b1-4)Glc
# Outline: as §1
# Fuc(a1-2)Gal(b1-3)GlcNAc = target: Fuc(a1-2)Gal(b1-3)GlcNAc
# Outline: as §1
# [6] = target: Fuc(a1-2)Gal(b1-3)GlcNAc(b1-2)Man(a1-3)[Fuc(a1-2)Gal(b1-3)GlcNAc(b1-2)Man(a1-6)]Man(b1-4)GlcNAc(b1-4)GlcNAc
# Outline: as §1
# [7] = target: Fuc(a1-2)Gal(b1-3)GlcNAc(b1-2)Man(a1-3)[Fuc(a1-2)Gal(b1-3)GlcNAc(b1-2)Man(a1-6)]Man(b1-4)GlcNAc(b1-4)[Fuc(a1-6)]GlcNAc
# Outline: as §1
# [8] = target: Fuc(a1-2)Gal(b1-3)GlcNAc(b1-3)Gal(b1-4)Glc
# Outline: as §1
# [9] = target: Fuc(a1-2)Gal(b1-3)GlcNAc(b1-3)GalNAc
# Outline: as §1
# [10] = target: Fuc(a1-2)Gal(b1-3)GlcNAc(b1-3)[Fuc(a1-2)Gal(b1-3)GlcNAc(b1-6)]GalNAc
# Outline: as §1
# [11] = target: Fuc(a1-2)Gal(b1-3)GlcNAc(b1-3)[Gal(b1-4)GlcNAc(b1-6)]Gal(b1-4)Glc
# Outline: as §1
# [12] = target: Fuc(a1-2)Gal(b1-3)GlcNAc(b1-3)[Neu5Ac(a2-6)Gal(b1-4)GlcNAc(b1-6)]Gal(b1-4)Glc
# Outline: as §1
# [13] = target: Fuc(a1-2)Gal(b1-3)GlcNAc6S
# Outline: as §1
# [14] = target: Fuc(a1-2)Gal(b1-3)[Fuc(a1-4)]GlcNAc
# Outline: as §1
# [15] = target: Fuc(a1-2)Gal(b1-3)[Fuc(a1-4)]GlcNAc(b1-2)Man(a1-3)[Fuc(a1-2)Gal(b1-3)[Fuc(a1-4)]GlcNAc(b1-2)Man(a1-3)]Man(b1-4)GlcNAc(b1-4)GlcNAc
# Outline: as §1
# [16] = target: Fuc(a1-2)Gal(b1-3)[Fuc(a1-4)]GlcNAc(b1-2)Man(a1-3)[Fuc(a1-2)Gal(b1-3)[Fuc(a1-4)]GlcNAc(b1-2)Man(a1-6)]Man(b1-4)GlcNAc(b1-4)[Fuc(a1-6)]GlcNAc(b1-4)[Fuc(a1-6)]GlcNAc
# Outline: as §1
# [17] = target: Fuc(a1-2)Gal(b1-3)[Fuc(a1-4)]GlcNAc(b1-3)[Fuc(a1-3)[Gal(b1-4)]GlcNAc(b1-6)]Gal(b1-4)Glc
# Outline: as §1
# [18] = target: Fuc(a1-2)Gal(b1-3)[Fuc(a1-4)]GlcNAc(b1-3)[Gal(b1-4)GlcNAc(b1-6)]Gal(b1-4)Glc
# Outline: as §1
# Fuc(a1-2)Gal(b1-4)Glc = target: Fuc(a1-2)Gal(b1-4)Glc
# Outline: as §1
# Fuc(a1-2)Gal(b1-4)Glc6S = target: Fuc(a1-2)Gal(b1-4)Glc6S
# Outline: as §1
# Fuc(a1-2)Gal(b1-4)GlcNAc = target: Fuc(a1-2)Gal(b1-4)GlcNAc
# Outline: as §1
# [19] = target: Fuc(a1-2)Gal(b1-4)GlcNAc(b1-2)Man
# Outline: as §1
# [20] = target: Fuc(a1-2)Gal(b1-4)GlcNAc(b1-2)Man(a1-3)[Fuc(a1-2)Gal(b1-4)GlcNAc(b1-2)Man(a1-6)]Man(b1-4)GlcNAc(b1-4)GlcNAc
# Outline: as §1
# [21] = target: Fuc(a1-2)Gal(b1-4)GlcNAc(b1-2)Man(a1-3)[Fuc(a1-2)Gal(b1-4)GlcNAc(b1-2)Man(a1-6)]Man(b1-4)GlcNAc(b1-4)[Fuc(a1-6)]GlcNAc
# Outline: as §1
# [22] = target: Fuc(a1-2)Gal(b1-4)GlcNAc(b1-2)[Fuc(a1-2)Gal(b1-4)GlcNAc(b1-4)]Man(a1-3)[Fuc(a1-2)Gal(b1-4)GlcNAc(b1-2)Man(a1-6)]Man(b1-4)GlcNAc(b1-4)GlcNAc
# Outline: as §1
# [23] = target: Fuc(a1-2)Gal(b1-4)GlcNAc(b1-3)Gal(b1-4)GlcNAc
# Outline: as §1
# [24] = target: Fuc(a1-2)Gal(b1-4)GlcNAc(b1-3)Gal(b1-4)GlcNAc(b1-2)Man(a1-3)[Fuc(a1-2)Gal(b1-4)GlcNAc(b1-3)Gal(b1-4)GlcNAc(b1-2)Man(a1-6)]Man(b1-4)GlcNAc(b1-4)GlcNAc
# Outline: as §1
# [25] = target: Fuc(a1-2)Gal(b1-4)GlcNAc(b1-3)Gal(b1-4)GlcNAc(b1-3)Gal(b1-4)GlcNAc
# Outline: as §1
# [26] = target: Fuc(a1-2)Gal(b1-4)GlcNAc(b1-3)GalNAc
# Outline: as §1
# [27] = target: Fuc(a1-2)Gal(b1-4)GlcNAc(b1-3)[Fuc(a1-2)Gal(b1-4)GlcNAc(b1-6)]GalNAc
# Outline: as §1
# [28] = target: Fuc(a1-2)Gal(b1-4)GlcNAc(b1-3)[Fuc(a1-3)[Gal(b1-4)]GlcNAc(b1-6)]Gal(b1-4)Glc
# Outline: as §1
# [29] = target: Fuc(a1-2)Gal(b1-4)GlcNAc(b1-6)GalNAc
# Outline: as §1
# [30] = target: Fuc(a1-2)Gal(b1-4)GlcNAc6S
# Outline: as §1
# [31] = target: Fuc(a1-2)Gal(b1-4)[Fuc(a1-3)]GlcNAc
# Outline: as §1
# [32] = target: Fuc(a1-2)Gal(b1-4)[Fuc(a1-3)]GlcNAc(b1-2)Man(a1-3)[Fuc(a1-2)Gal(b1-4)[Fuc(a1-3)]GlcNAc(b1-2)Man(a1-6)]Man(b1-4)GlcNAc(b1-4)[Fuc(a1-6)]GlcNAc
# Outline: as §1
# [33] = target: Fuc(a1-2)Gal(b1-4)[Fuc(a1-3)]GlcNAc(b1-2)[Fuc(a1-2)Gal(b1-4)[Fuc(a1-3)]GlcNAc(b1-4)]Man(a1-3)[Fuc(a1-2)Gal(b1-4)[Fuc(a1-3)]GlcNAc(b1-2)Man(a1-6)]Man(b1-4)GlcNAc(b1-4)GlcNAc
# Outline: as §1
# [34] = target: Fuc(a1-2)Gal(b1-4)[Fuc(a1-3)]GlcNAc(b1-3)Gal(b1-4)[Fuc(a1-3)]GlcNAc
# Outline: as §1
# [35] = target: Fuc(a1-2)Gal(b1-4)[Fuc(a1-3)]GlcNAc(b1-3)Gal(b1-4)[Fuc(a1-3)]GlcNAc(b1-3)Gal(b1-4)[Fuc(a1-3)]GlcNAc
# Outline: as §1
# [36] = target: Fuc(a1-2)Gal(b1-4)[Fuc(a1-3)]GlcNAc(b1-3)GalNAc
# Outline: as §1
# [37] = target: Fuc(a1-2)Gal(b1-4)[Fuc(a1-3)]GlcNAc(b1-3)[Neu5Ac(a2-6)Gal(b1-4)GlcNAc(b1-6)]Gal(b1-4)Glc
# Outline: as §1
# [38] = target: Fuc(a1-2)Gal3S(b1-4)GlcNAc
# Outline: as §1
# [39] = target: Fuc(a1-2)Gal6S(b1-3)GlcNAc
# Outline: as §1
binder,measurement,setting,value
B1,glycan array binding signal (z-score),Fuc(a1-2)Gal,-0.071
same,glycan array binding signal (z-score),Fuc(a1-2)Gal(b1-3)GalNAc,-0.254
same,glycan array binding signal (z-score),[1],-0.245
same,glycan array binding signal (z-score),[2],-0.275
same,glycan array binding signal (z-score),[3],-0.245
same,glycan array binding signal (z-score),[4],-0.184
same,glycan array binding signal (z-score),[5],-0.202
same,glycan array binding signal (z-score),Fuc(a1-2)Gal(b1-3)GlcNAc,-0.187
same,glycan array binding signal (z-score),[6],1.93
same,glycan array binding signal (z-score),[7],-0.017
same,glycan array binding signal (z-score),[8],-0.249
same,glycan array binding signal (z-score),[9],-0.167
same,glycan array binding signal (z-score),[10],-0.235
same,glycan array binding signal (z-score),[11],-0.277
same,glycan array binding signal (z-score),[12],-0.216
same,glycan array binding signal (z-score),[13],-0.251
same,glycan array binding signal (z-score),[14],-0.262
same,glycan array binding signal (z-score),[15],-0.212
same,glycan array binding signal (z-score),[16],-0.198
same,glycan array binding signal (z-score),[17],-0.176
same,glycan array binding signal (z-score),[18],-0.236
same,glycan array binding signal (z-score),Fuc(a1-2)Gal(b1-4)Glc,-0.212
same,glycan array binding signal (z-score),Fuc(a1-2)Gal(b1-4)Glc6S,-0.187
same,glycan array binding signal (z-score),Fuc(a1-2)Gal(b1-4)GlcNAc,-0.168
same,glycan array binding signal (z-score),[19],-0.231
same,glycan array binding signal (z-score),[20],-0.162
same,glycan array binding signal (z-score),[21],-0.071
same,glycan array binding signal (z-score),[22],-0.229
same,glycan array binding signal (z-score),[23],-0.169
same,glycan array binding signal (z-score),[24],0.093
same,glycan array binding signal (z-score),[25],-0.239
same,glycan array binding signal (z-score),[26],-0.168
same,glycan array binding signal (z-score),[27],-0.207
same,glycan array binding signal (z-score),[28],-0.268
same,glycan array binding signal (z-score),[29],-0.115
same,glycan array binding signal (z-score),[30],-0.23
same,glycan array binding signal (z-score),[31],-0.248
same,glycan array binding signal (z-score),[32],-0.188
same,glycan array binding signal (z-score),[33],-0.214
same,glycan array binding signal (z-score),[34],-0.272
same,glycan array binding signal (z-score),[35],-0.194
same,glycan array binding signal (z-score),[36],-0.137
same,glycan array binding signal (z-score),[37],-0.236
same,glycan array binding signal (z-score),[38],-0.253
same,glycan array binding signal (z-score),[39],-0.243
